# The campaign covered roughly 39,000 compounds. About 220 (0.56%) showed activity. Some of the results follow.
# Tested on: Escherichia coli K-12 BW25113
# Assay: relative growth (OD600 normalised to plate interquartile mean) (fraction); higher = less growth inhibition, active = 0.2 or less
# Settings: 50 µM; LB; incubation time: overnight (16-24 h)
# 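Also: static incubation at 37 °C against the wild-type strain, values averaged over two biological replicates.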
row,SMILES,relative growth
1,COCCNC(=O)C[C@H]1C[C@H]2c3cc(NC(=O)COC)ccc3O[C@H]2[C@@H](CO)O1,inactive: 0.935
2,CCO[C@H]1OC(C(=O)N2CCN(C)CC2)=C[C@@H](c2coc3ccccc3c2=O)[C@@H]1CCCOC(=O)NCCCCCC(=O)NO,inactive: 1.01
3,CCC(=O)Nc1ccc2c(c1)OC[C@H](C)N(C(=O)CN1CCOCC1)C[C@@H](C)[C@H](OC)CN(C)C2=O,inactive: 1.01
4,C[C@H]1CN([C@@H](C)CO)C(=O)c2cccc(NS(=O)(=O)c3ccc(Cl)cc3)c2O[C@H]1CN(C)Cc1ccc(C(F)(F)F)cc1,inactive: 1.05
5,C[C@@H]1CCCCO[C@H](CN(C)Cc2ccc(C(=O)O)cc2)[C@H](C)CN([C@H](C)CO)C(=O)c2cc(NC(=O)C3CCCCC3)ccc2O1,inactive: 0.983
6,C[C@@H]1CN([C@@H](C)CO)C(=O)c2cc(NC(=O)Cn3cnnn3)ccc2O[C@H]1CN(C)Cc1ccccc1,inactive: 0.994
7,CCCC[P+](CCCC)(CCCC)Cc1ccc(NC(=O)[C@@H](Cc2ccc3ccccc3c2)N=C(NC2CCCCC2)NC2CCCCC2)cc1,active: 0.0386
8,C[C@@H]1CN([C@@H](C)CO)S(=O)(=O)c2ccc(C#CC3(O)CCCC3)cc2O[C@@H]1CN(C)C(=O)c1cccnc1,inactive: 1
9,C[C@@H]1CCCCO[C@@H](CN(C)Cc2ccccc2)[C@H](C)CN([C@H](C)CO)C(=O)c2cc(NC(=O)C3CCCCC3)ccc2O1,inactive: 0.997
10,CN(CC(=O)O)C1CCCC1,inactive: 1.07
11,COc1ccc(S(=O)(=O)N(C)C[C@H]2Oc3c(NC(=O)C4CC4)cccc3C(=O)N([C@H](C)CO)C[C@@H]2C)cc1,inactive: 0.992
12,O=C(C[C@H]1CC=CC[C@@H](Cc2ccc(F)cc2)C(=O)OC[C@H](Cc2c[nH]c3ccccc23)NC1=O)NCCO,inactive: 0.998
13,CC(C)NC(=O)N(C)C[C@@H]1Oc2c(NS(=O)(=O)c3cccs3)cccc2C(=O)N([C@H](C)CO)C[C@H]1C,inactive: 0.995
14,C[C@@H]1CN([C@H](C)CO)C(=O)CCCn2cc(nn2)CO[C@@H]1CN(C)C(=O)Nc1ccnc(N2CCOCC2)c1,inactive: 0.99
15,C[C@@H]1CN([C@H](C)CO)C(=O)c2cc(C3=CCCCC3)cnc2O[C@@H]1CN(C)C(=O)CN1CCOCC1,inactive: 0.995
16,O=C1c2c(O)cccc2C(C2OC(CO)C(O)C(O)C2O)c2cc(CO)cc(O)c21 (centres undefined),inactive: 0.878
17,O=S(=O)(NCc1ccco1)N1CCOCC1,inactive: 0.968
18,CCC(=O)N1C[C@]2(C1)CN([C@@H](CO)c1c2c2ccc(cc2n1C)OC)S(=O)(=O)C,inactive: 1
19,CCC[C@H]1CN(S(=O)(=O)c2c(C)cc(C)c3nonc23)C[C@@H]1N,inactive: 1
20,CC(C)N1CC[C@@H](CN(C)Cc2ccc(Oc3ccccc3)cc2)Oc2c(NC(=O)c3ccncc3)cccc2C1=O,inactive: 1.03

row,SMILES,relative growth
1,COc1ccc2c3c([nH]c2c1)[C@H](CO)N(C[C@]13CCN(CC1)Cc1ccccc1OC)C(=O)Nc1ccc(cc1)F,inactive: 0.997
2,Cc1ccc(Cc2nc(-c3ccc(Cl)cc3)cs2)cc1,inactive: 0.957
3,Cc1ccc(S(=O)(=O)Nc2ccc3c(c2)C(=O)N([C@H](C)CO)C[C@H](C)[C@@H](CN(C)C(=O)NC2CCCCC2)OCCCC[C@H](C)O3)cc1,inactive: 1.03
4,C[C@H](CO)N1C[C@H](C)[C@H](CN(C)Cc2ccc(Oc3ccccc3)cc2)Oc2ccc(NC(=O)NC3CCCCC3)cc2CC1=O,inactive: 1.03
5,C[C@@H]1CCCCO[C@@H](CN(C)Cc2ccc(Cl)c(Cl)c2)[C@H](C)CN([C@H](C)CO)C(=O)c2cc(N(C)C)ccc2O1,inactive: 1.02
6,COc1ccc(NC(=O)Nc2ccc3c(c2)C(=O)N([C@@H](C)CO)C[C@@H](C)[C@H](CN(C)Cc2ccc(Cl)c(Cl)c2)OCCCC[C@H](C)O3)cc1,inactive: 1.03
7,C[C@@H]1CN([C@@H](C)CO)C(=O)CCCn2nncc2CO[C@@H]1CN(C)S(=O)(=O)c1ccc(Oc2ccccc2)cc1,inactive: 1.02
8,Cc1cc(C(=O)Nc2cccc3c2O[C@@H](CN(C)C(=O)Nc2c(C)noc2C)[C@H](C)CN([C@H](C)CO)C3=O)n(C)n1,inactive: 1.04
9,C[C@@H]1CN([C@@H](C)CO)C(=O)c2cc(NS(=O)(=O)c3ccc(F)cc3)ccc2O[C@@H](C)CCCCO[C@@H]1CN(C)C(=O)Cc1ccccc1,inactive: 1.02
10,C[C@@H]1CN([C@H](C)CO)C(=O)c2cc(NC(=O)CCC(F)(F)F)ccc2O[C@@H](C)CCCCO[C@H]1CN(C)S(=O)(=O)c1cccs1,inactive: 0.959
11,CO[C@@H](CN(C)S(=O)(=O)c1cccc(Cl)c1)[C@H](C)CN([C@H](C)CO)S(=O)(=O)c1cccc(Cl)c1,inactive: 1.03
12,O=C(NC(=O)N1CCOCC1)c1ccc(S(=O)(=O)N2CCOCC2)cc1,inactive: 0.963
13,COc1ccc(S(=O)(=O)Nc2ccc3c(c2)C(=O)N([C@H](C)CO)C[C@H](C)[C@@H](CN(C)Cc2ccncc2)O3)cc1,inactive: 1.01
14,CO[C@@H](C(=O)N(C)C[C@@H]1OCc2ccccc2-c2c(n(C)c3ccccc23)C(=O)N([C@H](C)CO)C[C@H]1C)c1ccccc1,inactive: 0.993
15,CCCCC(=O)N(Cc1ccc(-c2ccccc2-c2nn[nH]n2)cc1)C(C(=O)O)C(C)C (centres undefined),inactive: 1.21
16,Cc1ccc(-c2cnc3c(c2)C(=O)N([C@H](C)CO)C[C@@H](C)[C@H](CN(C)C(=O)Cc2ccncc2)O3)cc1,inactive: 1.01
17,C[C@@H]1CN([C@@H](C)CO)C(=O)Cc2cc(NC(=O)C3CC3)ccc2O[C@H]1CN(C)C(=O)Nc1ccc(F)cc1,inactive: 1.01
18,CNC[C@@H]1OCCCC[C@H](C)Oc2ccc(NC(=O)Nc3ccc(C(F)(F)F)cc3)cc2C(=O)N([C@H](C)CO)C[C@H]1C,inactive: 0.98
19,CO[C@H](CN(C)C(=O)C1CCOCC1)[C@@H](C)CN(C(=O)Nc1ccc(C(F)(F)F)cc1)[C@H](C)CO,inactive: 0.778

# — the supplement of paper PMC9446081
